# The whole screen tested about 220,000 compounds, of which about 2,300 (1%) were called active. Another 6% or so got no clear call; they are omitted. Calls come from the whole dose curve; as a rule, active = well fitted inhibition curve with a large enough effect; inconclusive = small, poorly fitted or top-dose-only effect, or effect the other way; inactive = no such curve, though single readings can be large or run the other way. Only a part is listed here, and it is no random draw.
# Target: Neuropeptide S receptor (Homo sapiens) (UniProt Q6W5P4)
# Sequence of UniProt Q6W5P4 (Q6W5P4 whole entry, looked up): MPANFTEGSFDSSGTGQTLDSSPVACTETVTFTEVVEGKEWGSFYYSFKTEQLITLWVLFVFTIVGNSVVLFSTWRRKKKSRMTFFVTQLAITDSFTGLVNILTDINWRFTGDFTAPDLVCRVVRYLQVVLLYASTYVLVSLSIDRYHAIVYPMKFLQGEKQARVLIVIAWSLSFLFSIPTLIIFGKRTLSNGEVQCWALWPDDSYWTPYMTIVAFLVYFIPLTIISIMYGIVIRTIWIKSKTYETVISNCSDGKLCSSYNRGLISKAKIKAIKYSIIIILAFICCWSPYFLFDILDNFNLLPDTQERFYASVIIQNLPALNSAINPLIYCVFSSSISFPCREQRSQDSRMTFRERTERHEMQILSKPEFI
# Assay: qHTS Assay for Antagonists of the Neuropeptide S Receptor: cAMP Signal Transduction; note: nearly all actives have a fitted effect of over 50% in size
# Conditions: CHO-NPSR cells, cAMP TR-FRET, antagonist mode; series mostly up to 38.3 µM; activity change, negative = inhibition: at the top concentration
# % is set by controls: 0 for no effect and ±100 for the full control effect; potency is the fitted concentration of half-maximal effect.
SMILES,Potency,"activity change, negative = inhibition"
CCOC(=O)c1cc2c(=O)n3ccccc3nc2n(CC(C)C)c1=NC(=O)c1c(-c2c(F)cccc2Cl)noc1C,active: 3.98 µM,
COC(=O)C1=C(C)NC(C)=C([N+](=O)[O-])C1c1ccccc1C(F)(F)F (stereo not given),,inactive: -24.4%
Oc1cc(O)c2c(c1)O[C@H](c1ccc(O)c(O)c1)[C@@H](O)C2,,inactive: 5.96%
CCN(CC)CCOC(=O)C1(C2CCCCC2)CCCCC1,,inactive: -7.48%
CCOC(=O)/C(=C\c1ccc([N+](=O)[O-])cc1)C(=O)c1cc(C(C)=O)c(Nc2ccccc2)s1,active: 7.94 µM,
CN(C)CCCN1c2ccccc2Sc2ccc(C(F)(F)F)cc21,,inactive: -0.483% [at 46.1 µM]
CCSc1nc2ccccc2n1C(=O)/C=C/c1ccc(OC)c(OC)c1,,inactive: -59%
O=C(C1=C[C@@H](c2coc3ccccc3c2=O)C[C@@H](OCCCCO)O1)N1CCN(Cc2ccccc2)CC1,,inactive: 29.3%
CN1CCN(CC/C=C2/c3ccccc3Sc3ccc(S(=O)(=O)N(C)C)cc32)CC1,,inactive: -54.7%
O=S(=O)(c1ccc2c(c1)C(=NO)c1cc(S(=O)(=O)N3CCCCC3)ccc1-2)N1CCCCC1,active: 2 µM,
COc1ccc(/C(O)=C2/C(=O)C(=O)N(c3nc(C)c(C)s3)C2c2ccco2)cc1 (stereo not given),active: 10 µM,
C[C@](N)(Cc1ccc(O)cc1)C(=O)O,,inactive: -4.42% [at 46.1 µM]
COc1ccc(C2Nc3ccc4ccccc4c3-c3c2c(=O)oc2ccccc32)cc1 (stereo not given),active: 7.94 µM,
c1ccc(-c2nnc3sc(-c4csc5c4CCCC5)nn23)cc1,active: 10 µM,
CC(/C=N/NC(=O)c1cccs1)=C\c1ccccc1,,inactive: -23%
Cc1ccc2nc(-c3cccnc3)cc(C(=O)N3CCN(c4ccc([N+](=O)[O-])cc4)CC3)c2c1,active: 5.01 µM,
Clc1ccc2c(c1)C(N1CCNCC1)=Nc1ccccc1O2,,inactive: 8.28%
O=C(C1=C[C@@H](c2ccc(Br)cc2)C[C@@H](OCCCCO)O1)N1CCN(Cc2ccc3c(c2)OCO3)CC1,,inactive: 51.4%
CC(=O)n1cc([C@@H]2C=C(C(=O)N3CCN(Cc4ccc5c(c4)OCO5)CC3)O[C@H](OCCCCO)C2)c2ccccc21,,inactive: 49.9%
c1ccc(CC2CCN(C3=Nc4cccc5cccc3c45)CC2)cc1,active: 10 µM,
CN(C)CCCN1c2ccccc2CCc2ccc(Cl)cc21,,inactive: -44.5%
CC1=C(C)C(=O)C(CCCCC#CCCCC#CCO)=C(C)C1=O,,inactive: -5.53%
CC1CCN(c2nc(-c3ccccc3)c(C#N)c(=O)[nH]2)CC1,active: 12.6 µM,
CC1=NNC(=O)/C1=C\c1cn(-c2ccccc2)nc1-c1ccc(Cl)cc1,active: 2.51 µM,
O=C(CCC1CCCCC1)NCCN1C2=NC[C@@H](Cc3ccccc3)N2C[C@H]1Cc1ccc(O)cc1,,inactive: 59.6%
CC[C@]1(O)CC2CN(CCc3c([nH]c4ccccc34)[C@@](C(=O)OC)(c3cc4c(cc3OC)N(C=O)[C@H]3[C@@](O)(C(=O)OC)[C@H](OC(C)=O)[C@]5(CC)C=CCN6CC[C@]43[C@@H]65)C2)C1 (stereo not given in full),,inactive: 26.1%
CNCCC=C1c2ccccc2CCc2ccccc21,,inactive: -11.2%
Cc1ccc(/C(=C\CN2CCCC2)c2ccccn2)cc1,,inactive: 11.9%

SMILES,Potency,"activity change, negative = inhibition"
CCO[C@@H]1OC(C(=O)N2CCCCCCC2)=C[C@H](c2csc3ccccc23)[C@H]1CCCO,,inactive: 48.3%
CCOC(=O)/C(C#N)=C1/C(=O)N(Cc2ccccc2)c2ccccc21,,inactive: -3.68%
CCN(CC)CC#CCOC(=O)C(O)(c1ccccc1)C1CCCCC1 (stereo not given),,inactive: -19.1%
Cc1ccccc1OCc1nc(-c2ccc(NC(=O)c3ccc4c(c3)OCO4)cc2)no1,active: 10 µM,
c1ccc2c(c1)CC/C2=N/Nc1nc2ccccc2[nH]1,active: 7.94 µM,
CN(C)CCN(Cc1cccs1)c1ccccn1,,inactive: 10.3%
CN1CCN(C(=O)C2=C[C@@H](c3coc4ccccc4c3=O)C[C@@H](OCCCCO)O2)CC1,,inactive: -19.1%
COC(=O)c1ccc(NC(=O)CCN2CCCCC2)cc1,,inactive: -1.01% [at 46.1 µM]
CC(C)(C)c1ccc(CN2N=Nc3ccccc3S2(=O)=O)cc1,active: 10 µM,
Cc1ccc(NC2=C/C(=N\S(=O)(=O)c3cccs3)c3ccccc3C2=O)c(C)c1,active: 3.98 µM,
COc1cccc(N2CCN(c3ncnc4c3cnn4-c3ccc(C)cc3C)CC2)c1,active: 10 µM,
CCCCSc1cnn(-c2ccccc2)c(=O)c1SCCCC,active: 12.6 µM,
O=C(C1=C[C@@H](c2coc3ccccc3c2=O)C[C@@H](OCc2ccc(CO)cc2)O1)N1CCN(Cc2ccc3c(c2)OCO3)CC1,,inactive: 48.9%
CC(=O)Nc1ccc(NC2=C/C(=N/S(=O)(=O)c3cccs3)c3ccccc3C2=O)cc1,active: 7.94 µM,
O=C(NC1CC1)C1=C[C@@H](C2CCCCC2)C[C@@H](OCc2ccc(CO)cc2)O1,,inactive: 30.2%
CCO[C@@H]1OC(C(=O)O)=C[C@H](c2csc3ccccc23)[C@H]1CCCO,,inactive: -4.98%
O=C(C1=C[C@@H](C2CCCCC2)C[C@@H](OCCCCO)O1)N1CCN(Cc2ccc3c(c2)OCO3)CC1,,inactive: 45.3%
CC(=O)O[C@H]1C(=O)[C@@]2(C)[C@H]([C@H](OC(=O)c3ccccc3)[C@]3(O)C[C@H](OC(=O)[C@H](O)C(NC(=O)c4ccccc4)c4ccccc4)C(C)=C1C3(C)C)[C@]1(OC(C)=O)CO[C@@H]1C[C@@H]2O (stereo not given in full),,inactive: -36.5%
CCc1ccc2nc(N3C(=O)C(O)=C(C(=O)c4ccco4)C3c3cccs3)sc2c1 (stereo not given),active: 10 µM,
CC(C)(C)[C@]1(O)CCN2C[C@H]3c4ccccc4CCc4cccc(c43)[C@@H]2C1,,inactive: -39.9%
COc1ccc(C2=C(CN(C)C)C(c3ccccc3)c3ccccc3O2)cc1 (stereo not given),,inactive: -17.2% [at 46.1 µM]
O=C(COC(=O)CCc1ccc(S(=O)(=O)N2CCOCC2)cc1)Nc1ccc(Cl)cn1,,inactive: -0.096%
CCCNCC(O)COc1ccccc1C(=O)CCc1ccccc1 (stereo not given),inactive,
O=[N+]([O-])c1cccc2cn[nH]c12,,inactive: 17.1%
CCC(C)N(C)C(=O)c1cc2ccccc2c(-c2ccccc2Cl)n1 (stereo not given),,inactive: -32.6%
Cc1nc2nc(C)c(CCC(=O)NCCCN3CCN(c4cccc(Cl)c4)CC3)c(C)n2n1,,inactive: 6.08%
Cc1ccc2c(Cl)c(C(=O)Nc3ccc4c(c3)OCO4)sc2c1,active: 6.31 µM,
